The supplement of paper PMC7826260
The list shows a part of the results. One pool of 16,384 single-stranded DNAs met each Rep nickase domain in vitro for 1 h at 37 °C with 3 µM enzyme; only the middle of the 90-letter strands is printed. Numbers give uncut DNA relative to the enzyme-free pool, as log2; the lower, the more was cut; hits are not called. Because reads are shares of a total, they shift together, so uncut sequences can rise above 0 when many others are cut.

system: T1, Rep nickase domain of tomato golden mosaic virus; experiment: uncleaved DNA left, log2 of reads against the no-enzyme library (log2 ratio); higher = less cleavage (more negative = more Rep cleavage of the k-mer); sequences stand for … in CTCGTCCG…ACCGGAGA
T1 sequence (Rep 1-124, printed without the tag): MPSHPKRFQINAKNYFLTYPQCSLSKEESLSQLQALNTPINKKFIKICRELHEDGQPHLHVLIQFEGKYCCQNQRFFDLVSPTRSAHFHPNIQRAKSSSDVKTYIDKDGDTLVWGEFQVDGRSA
Procedure: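 A pool of 90-nt single-stranded DNAs with seven random bases just before the constant AC of the nick site (name = the seven bases) was cut by 3 µM recombinant His6-SUMO-tagged Rep nickase domain (300 nM DNA, 50 mM HEPES pH 8.0, 50 mM NaCl, 1 mM MnCl2, 1 h, 37 °C, three replicates). Uncut DNA was amplified and sequenced.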

Sequence | uncleaved DNA left (log2)
CTCGCGC | -0.0327
GTCAGTC | 0.0697
GAGACAT | 0.00502
ATCCAGT | 0.0863
TCTCAAC | -0.0671
CGATTGA | 0.109
CGTCGCT | -0.0973
AAGGAGT | -0.0283
CTATAGG | 0.0806
GAAGCCG | -0.0636
TTATTTC | -0.149
GGAGAAG | 0.0108
TGCACAA | -0.035
CCCCTGC | -0.105
AGCACGT | 0.0138
GTGAGGG | 0.0665
AACGTTG | 0.11
AGCCTCA | -0.000847
CATTAGG | 0.104
GCTAACA | -0.0504

Sequence | uncleaved DNA left (log2)
AGTTTCT | 0.00336
ATACGAG | -0.03
GAGTGTC | 0.0876
AACGCGT | -0.0655
CAAACAC | -0.0372
TAGATGA | 0.0917
CTTCGCA | -0.0165
GCTGGGA | 0.0937
TCGCTCC | -0.209
GTGCGTA | 0.0237
GGTGATT | -0.0529
CTCCACG | 0.0374
ACGCTGC | 0.154
GCGATGA | -0.033
AACTCAC | -0.164
TGTTCTT | -0.108
GTGCGAT | 0.00655
GGCGGGA | 0.104
ACACATA | 0.00997
ACCACTA | -0.0326
